{
  "source": "PubChem BioAssay (NCATS)",
  "key": {"[1]": {"assay": "NFAT Signaling Pathway (AID 444);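 also: carbachol stimulus at about its EC50 of 1 µM final; % is scaled to controls: 0 for no effect and ±100 for the full control effect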", "conditions": "Jurkat NFAT-bla M1, carbachol, beta-lactamase ratio, 5 h; at 17.2 µM (top of the series) unless noted", "method_in_brief": "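Jurkat cells with NFAT-driven β-lactamase reporter and co-expressed M1 receptor, stimulated with carbachol (final 1 uM, ~EC50), compound titration, 5 h at 37 °C. CCF4 loaded 1 h at RT; 460/530 nm ratio gave %activity and AC50.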"}, "[2]": {"assay": "qHTS Assay for Identification of Small Molecule Agonists for Hypoxia Response Element Signaling Pathway (AID 914; active = well fitted activation curve with a large enough effect in the signal ratio, with a control signal flat, not every such curve was filed as active; inconclusive = small, poorly fitted or top-dose-only effect, or effect the other way, or a change in a side signal; the % refers to the signal ratio; also: potency is read from the fitted curve at half-maximal effect; as to activation: top concentration of the series differs between compounds; % of control where 0% means no effect)", "conditions": "ME-180 HRE-bla reporter, beta-lactamase ratio, CoCl2, 17 h; activation: stronger effect = higher value", "method_in_brief": "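Read-out: CCF4 FRET ratio of 460nm to 530nm emission (excitation 405nm) after 2.5 hours at room temperature, taken from HRE-bla ME-180 cells that had been exposed to compound and EC50 CoCl2 for 17 hours.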"}, "[3]": {"assay": "Stat Signaling Pathway (AID 446);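 also: ME-180 cervical cancer cells given 40 pM IL-6 alongside compound; top concentration of the series differs between compounds; % is scaled to controls: 0 for no effect and ±100 for the full control effect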", "conditions": "ME-180 SIE beta-lactamase reporter, IL-6 stimulated, 5 h; at 7.69 µM (top of the series) unless noted", "method_in_brief": "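Compound effects on IL-6-induced STAT reporter activity were measured in ME-180 cells. After overnight culture, cells were co-treated with 40 pM IL-6 for 5 hrs before beta-lactamase substrate loading at room temperature.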"}},
  "note": "Inconclusive results, whose numbers are uncertain, are shown with a selection of clear calls. For some assays here: A potency beside an inconclusive call is a rough fit, not a confirmed value. For some assays here: “Side channel” marks fits to a control or component signal instead of the main read-out. Activity calls are given as the source filed them. Unless noted, calls follow the shape of the dose curve; as a rule, active = well fitted curve in either direction with a large enough effect (not every such curve was filed as active); inconclusive = small, poorly fitted or top-dose-only effect, or another doubt; inactive = flat fitted curve, though single readings scatter. Tags tell the direction and shape of the fitted curve or compound fluorescence and quenching.",
  "data": [
    {"smiles": "COCC(=O)N1CCC2(CCN(Cc3ccc(C#N)cc3)CC2)CC1", "values": [
      {"measurement": "activity change, negative = inhibition", "setting": "[1]", "value": "inconclusive: -37.6% [inhibitor] [at 7.69 µM]"},
      {"measurement": "activation", "setting": "[2]", "value": "inactive: 4.64%"}
    ]},
    {"smiles": "Cc1c(C)c2cc(Cl)c(O)c(CN3CCCC(C)C3)c2oc1=O", "note": "(configuration not stated)", "values": [
      {"measurement": "activity change, negative = inhibition", "setting": "[1]", "value": "inconclusive: 48.1% [activator]"},
      {"measurement": "Potency", "setting": "[2]", "value": "inconclusive: 7.94 µM [activator, partial curve]"}
    ]},
    {"smiles": "O=C(c1cc(N2CCCCC2)nc2ccccc12)N1CCOCC1", "values": [
      {"measurement": "activity change, negative = inhibition", "setting": "[1]", "value": "inactive: -13.8%"},
      {"measurement": "activation", "setting": "[2]", "value": "inconclusive: 5.42%"}
    ]},
    {"smiles": "CCOc1ccc(-c2nn3c(-c4ccc(OC)cc4)nnc3s2)cc1", "values": [
      {"measurement": "activity change, negative = inhibition", "setting": "[1]", "value": "inconclusive: -49.6% [inhibitor]"},
      {"measurement": "Potency", "setting": "[2]", "value": "inconclusive: 10 µM [inhibitor, single point]"}
    ]},
    {"smiles": "O=C(N[C@@]1(C(=O)O)C[C@@H]1c1ccccc1)c1ccccc1", "values": [
      {"measurement": "activity change, negative = inhibition", "setting": "[1]", "value": "inactive: 18.8% [at 7.69 µM]"},
      {"measurement": "activation", "setting": "[2]", "value": "inconclusive: 1.79%"}
    ]},
    {"smiles": "CC(C)COc1ccc(C(=O)NC(CC(C)C)C(=O)O)cc1", "note": "(configuration not stated)", "values": [
      {"measurement": "activity change, negative = inhibition", "setting": "[1]", "value": "inactive: -7.69%"},
      {"measurement": "activation", "setting": "[2]", "value": "inactive: 11.5%"}
    ]},
    {"smiles": "O=c1c2c3c(sc2nc2n1CCCS2)CCCC3", "values": [
      {"measurement": "activity change, negative = inhibition", "setting": "[1]", "value": "inactive: -17.4%"},
      {"measurement": "activation", "setting": "[2]", "value": "inconclusive: 23.5%"}
    ]},
    {"smiles": "COC(=O)Nc1nc2ccc(SC(C)C)cc2[nH]1", "values": [
      {"measurement": "activity change, negative = inhibition", "setting": "[1]", "value": "inconclusive: -55.9% [inhibitor]"},
      {"measurement": "Potency", "setting": "[2]", "value": "inconclusive: 3.16 µM [inhibitor, partial curve, poor fit]"}
    ]},
    {"smiles": "COc1ccc(-n2c(SCC(N)=O)nc3sc4c(c3c2=O)CCN(C)C4)cc1", "values": [
      {"measurement": "activity change, negative = inhibition", "setting": "[1]", "value": "inconclusive: -45.4% [inhibitor]"},
      {"measurement": "activation", "setting": "[2]", "value": "inactive: -0.0215%"}
    ]},
    {"smiles": "COc1ccc2cnn(-c3ccccc3C)c(=O)c2c1OC", "values": [
      {"measurement": "activity change, negative = inhibition", "setting": "[1]", "value": "inactive: -6.03%"},
      {"measurement": "Potency", "setting": "[2]", "value": "inconclusive: 7.94 µM [inhibitor, partial curve]"}
    ]},
    {"smiles": "O=C(Nc1ccccc1)N1CC[C@@]2(CCCN(C(=O)c3cccc(F)c3)C2)C1", "values": [
      {"measurement": "activity change, negative = inhibition", "setting": "[1]", "value": "inactive: -6.63% [at 7.69 µM]"},
      {"measurement": "activation", "setting": "[2]", "value": "inconclusive: 8.27%"}
    ]},
    {"smiles": "O=C(Nc1nc(NC(=O)c2ccco2)n(-c2ccccc2)n1)c1ccccc1", "values": [
      {"measurement": "activity change, negative = inhibition", "setting": "[1]", "value": "inconclusive: -83.1% [inhibitor]"},
      {"measurement": "Potency", "setting": "[2]", "value": "inconclusive: 0.02 µM [inhibitor, full curve, poor fit]"}
    ]},
    {"smiles": "C[C@]12CC[C@@H]3c4ccc(O)cc4CC[C@H]3[C@@H]1CC[C@@H]2OC(=O)CCC(=O)O", "values": [
      {"measurement": "activity change, negative = inhibition", "setting": "[1]", "value": "inconclusive: -51% [inhibitor]"},
      {"measurement": "Potency", "setting": "[2]", "value": "inconclusive: 5.01 µM [inhibitor, partial curve]"}
    ]},
    {"smiles": "C[C@@H]1c2ccccc2Cn2cc3c(c21)C(=O)c1cccc(OP(=O)(O)OCc2ccccc2)c1C3=O", "values": [
      {"measurement": "activity change, negative = inhibition", "setting": "[1]", "value": "inconclusive: -32% [inhibitor] [at 7.69 µM]"},
      {"measurement": "Potency", "setting": "[2]", "value": "inconclusive: 0.316 µM [inhibitor, full curve]"}
    ]},
    {"smiles": "CCCCSc1nc(O)c(C2OC(=O)c3c2ccc(OC)c3OC)c(=O)n1C", "note": "(configuration not stated)", "values": [
      {"measurement": "activity change, negative = inhibition", "setting": "[1]", "value": "inactive: 1.82%"},
      {"measurement": "Potency", "setting": "[2]", "value": "inconclusive: 10 µM [activator, single point]"}
    ]},
    {"smiles": "CCOC(=O)N1CC=C2C(C#N)=C(N)C(C#N)(C#N)[C@H](c3cccs3)[C@H]2C1", "values": [
      {"measurement": "activity change, negative = inhibition", "setting": "[1]", "value": "inconclusive: -43.8% [inhibitor]"},
      {"measurement": "Potency", "setting": "[2]", "value": "inconclusive: 2 µM [inhibitor, full curve]"}
    ]},
    {"smiles": "O=C(c1ccc(=O)oc1)N1CCN(C(c2ccccc2)c2ccccc2)CC1", "values": [
      {"measurement": "activity change, negative = inhibition", "setting": "[1]", "value": "active: -101%"},
      {"measurement": "activation", "setting": "[2]", "value": "inactive: 9.9%"}
    ]},
    {"smiles": "COc1cc2c(C(=O)N3CCN(c4ccccc4)CC3)c(C)oc2cc1Br", "values": [
      {"measurement": "activity change, negative = inhibition", "setting": "[1]", "value": "inconclusive: -30.5% [inhibitor]"},
      {"measurement": "activation", "setting": "[2]", "value": "inconclusive: 0.971%"}
    ]},
    {"smiles": "COc1ccc(Oc2ncc3nc(-c4ccc(F)cc4)c(=O)n(C4CC4)c3n2)cc1", "values": [
      {"measurement": "activity change, negative = inhibition", "setting": "[1]", "value": "inconclusive: 0.102% [inhibitor] [at 7.69 µM]"},
      {"measurement": "Potency", "setting": "[2]", "value": "inconclusive: 0.0251 µM [inhibitor, full curve]"}
    ]},
    {"smiles": "Cn1c(=O)c2[nH]c([C@@H]3CC(=O)C[C@H](c4nc5c([nH]4)c(=O)n(C)c(=O)n5C)N3)nc2n(C)c1=O", "values": [
      {"measurement": "activity change, negative = inhibition", "setting": "[1]", "value": "inactive: 19% [at 7.69 µM]"},
      {"measurement": "Potency", "setting": "[2]", "value": "inconclusive: 1 µM [cytotoxic, side channel]"}
    ]},
    {"smiles": "c1ccc(-c2cnc(-c3ccc(-c4ncc(-c5ccccc5)o4)cc3)o2)cc1", "values": [
      {"measurement": "activity change, negative = inhibition", "setting": "[1]", "value": "inactive: 14.2% [at 7.69 µM]"},
      {"measurement": "activation", "setting": "[2]", "value": "inactive: 15%"}
    ]},
    {"smiles": "Cc1nc(N2CCOCC2)c(C#N)c2c1COC(C)(C)C2", "values": [
      {"measurement": "activity, negative = inhibition", "setting": "[3]", "value": "inactive: 7.32% [at 17.2 µM]"}
    ]},
    {"smiles": "CCCCn1cnc2c(c1=O)c1nc3ccccc3nc1n2Cc1ccc2c(c1)OCO2", "values": [
      {"measurement": "activity change, negative = inhibition", "setting": "[1]", "value": "inconclusive: 145% [activator]"},
      {"measurement": "Potency", "setting": "[2]", "value": "active: 12.6 µM"}
    ]},
    {"smiles": "C=CCOC(=O)C(C#N)c1nc2ccccc2nc1N1CCN(c2ccccc2OCC)CC1", "note": "(configuration not stated)", "values": [
      {"measurement": "activity change, negative = inhibition", "setting": "[1]", "value": "inconclusive: -54.7% [inhibitor]"},
      {"measurement": "Potency", "setting": "[2]", "value": "inconclusive: 5.01 µM [cytotoxic, side channel, partial curve]"}
    ]}
  ]
}
